Test results as given in patent US20240392040A1 (AKESO HUIKE SHANGHAI, published 2024).

T1: LAG3 on 293T-LAG3 membrane surface (full-length human LAG3 on cells) (human, UniProt P18627 23-525)
T1 sequence (looked up): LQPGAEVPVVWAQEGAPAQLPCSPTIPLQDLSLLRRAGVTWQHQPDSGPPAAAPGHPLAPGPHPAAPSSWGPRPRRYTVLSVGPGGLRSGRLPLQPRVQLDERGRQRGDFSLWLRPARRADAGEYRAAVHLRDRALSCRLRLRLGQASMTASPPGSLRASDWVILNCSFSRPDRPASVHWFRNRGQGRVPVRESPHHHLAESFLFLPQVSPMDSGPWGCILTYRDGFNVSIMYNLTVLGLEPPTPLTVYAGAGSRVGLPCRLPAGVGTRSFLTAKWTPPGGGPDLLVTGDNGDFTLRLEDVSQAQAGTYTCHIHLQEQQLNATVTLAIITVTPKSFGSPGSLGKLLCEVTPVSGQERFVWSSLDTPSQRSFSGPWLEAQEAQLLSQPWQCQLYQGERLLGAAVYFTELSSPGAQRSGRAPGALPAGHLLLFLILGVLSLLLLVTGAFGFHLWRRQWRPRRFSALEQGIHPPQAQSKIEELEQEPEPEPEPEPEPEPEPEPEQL

T2: human LAG3-mFc (human, UniProt P18627 23-450, limits assumed)
T2 construct: not shown: mouse IgG Fc (mFc)
T2 sequence (looked up): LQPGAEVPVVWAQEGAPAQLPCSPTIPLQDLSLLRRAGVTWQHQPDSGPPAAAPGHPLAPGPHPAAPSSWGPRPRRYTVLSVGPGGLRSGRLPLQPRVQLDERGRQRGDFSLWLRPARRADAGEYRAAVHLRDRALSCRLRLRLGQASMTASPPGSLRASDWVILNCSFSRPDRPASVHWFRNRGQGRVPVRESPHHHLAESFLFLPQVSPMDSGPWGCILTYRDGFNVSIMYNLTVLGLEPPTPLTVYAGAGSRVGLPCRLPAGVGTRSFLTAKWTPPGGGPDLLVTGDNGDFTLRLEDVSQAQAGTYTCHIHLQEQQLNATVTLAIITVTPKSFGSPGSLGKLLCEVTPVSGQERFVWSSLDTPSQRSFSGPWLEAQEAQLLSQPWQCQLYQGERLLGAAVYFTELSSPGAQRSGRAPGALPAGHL


Columns and labels:
[1] = target: T3, PD-1 on 293T-PD1 membrane surface (full-length human PD-1 on cells) (human, UniProt Q15116 25-288); assay: flow cytometry on 293T-PD1 cells
T3 construct: whole, on cells; the Promega PD-1 effector cells are bought; also called CHO-K1-PD1 cells
Description: 100 μL of 1% PBSA was then added to each well, and the mixture was centrifuged at 350×g for 5 min, followed by removal of the supernatant. […] The mixture was mixed gently and uniformly, and then incubated on ice for 1 h. 100 μL of 1% PBSA was added to each well, and the mixture was centrifuged at 350×g for 5 min, followed by removal of the supernatant. Then the plate was washed twice with 200 μL of 1% PBSA. […] The mixture was mixed well and then incubated on ice in the dark for 0.5 h. 100 μL of 1% PBSA was added to each well, and the mixture was centrifuged at 350×g for 5 min, followed by removal of the supernatant. Then the plate was washed twice with 200 μL of 1% PBSA. 400 μL of 1% PBSA was added to each well to resuspend the cell pellets, and the mixture was transferred to a flow cytometry tube for FACSCalibur assay.

[2] = target: T1, LAG3 on 293T-LAG3 membrane surface …; assay: cell-based or functional assay
human PD-1-mFc = target: T4, human PD-1-mFc (human, UniProt Q15116 part only, limits assumed); assay: indirect ELISA, coated human PD-1-mFc
T4 construct: not shown: mouse IgG Fc (mFc)
Description: Then the ELISA plate coated with the antigen was washed once with PBST and then blocked with a PBS solution containing 1% BSA as a blocking solution at 37° C. for 2 h. After blocking, the ELISA plate was washed 3 times with PBST. The ELISA plate containing the test antibodies was incubated at 37° C. for 30 min and then washed 3 times with PBST.
(§1) After incubation, the plate was washed 4 times with PBST, TMB (Neogen, 308177) was added for chromogenesis in the dark for 5 min, and then a stop solution was added to terminate the chromogenic reaction. The ELISA plate was put into an ELISA plate reader immediately, and the OD value of each well in the ELISA plate was read at 450 nm. The data were analyzed and processed by SoftMax Pro 6.2.1.

human PD-1-mFc-Biotin = target: T5, human PD-1-mFc-Biotin (human, UniProt Q15116 part only, limits assumed, biotin label (site not stated)); assay: competitive ELISA, blocking of PD-1-mFc-Biotin binding to coated human PDL1-mFc
T5 construct: not shown: mouse IgG Fc (mFc)
Description: After incubation, the ELISA plate was blocked with a PBS solution containing 1% BSA at 37° C. for 2 h. After blocking, the plate was washed three times and dried. The antibody was serially diluted on a dilution plate in a 3-fold dilution ratio to achieve 7 concentrations with 80 nM as the starting concentration (at a final concentration of 40 nM), and a blank control was set. […] Then the mixture was incubated at room temperature for 10 min. Then the mixture after reaction was added to the coated ELISA plate, and the ELISA plate was incubated at 37° C. for 30 min. After incubation, the plate was washed three times with PBST and dried. An SA-HRP (KPL, 14-30-00) working solution was added, and the plate was incubated at 37° C. for 30 min. After incubation, the plate was washed four times and dried. Then TMB (Neogen, 308177) was added in the dark for chromogenesis for 5 min, and then a stop solution was added to terminate the chromogenic reaction. The ELISA plate was put into an ELISA plate reader immediately, and the OD value of each well in the ELISA plate was read at 450 nm. The data were analyzed and processed by SoftMax Pro 6.2.1.

human LAG3-mFc = target: T2, human LAG3-mFc; assay: indirect ELISA, coated human LAG3-mFc
Description: as §1, with “Then the ELISA plate coated with the antigen was washed once with PBST and then blocked with a PBS solution containing 1% BSA as a blocking solution at 37° C. for 2 h. After blocking, the ELISA plate was washed 3 times with PBST. The ELISA plate containing the test antibodies was incubated at 37° C. for 30 min and then washed 3 times with PBST. […] After” for “After”

Chain of human PD-1-mFc-Biotin (Q15116 25-170 limits assumed): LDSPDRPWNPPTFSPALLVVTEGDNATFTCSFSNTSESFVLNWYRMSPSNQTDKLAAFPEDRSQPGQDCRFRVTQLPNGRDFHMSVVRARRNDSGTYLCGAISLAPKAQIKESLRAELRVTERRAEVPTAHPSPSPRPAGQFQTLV
Chain of human PD-1-mFc (Q15116 25-170 limits assumed): as above

EC50 [1] | EC50 (nM), luciferase reporter (RLU), Jurkat-NFAT-PD1-LAG3 cells + SEE-treated Raji cells [2] | EC50 (human PD-1-mFc) | EC50 (human PD-1-mFc-Biotin) | EC50 (human LAG3-mFc) | Binder
7.21 nM | 1.48 nM |  |  |  | Bi-PGV02 (bispecific antibody, human IgG4 S228P, kappa, F234A L235A) heavy: QVQLQQWGAGLLKPSETLSLTCAVYGGSISDYYWNWIRQPPGKGLEWIGEINHRGTTNSNPSLKSRVTLSLDTSKNQFSLKLRSVTAADTAVYYCAFGYSDYEYDWFDPWGQGTLVTVSSASTKGPSVFPLAPCSRSTSESTAALGCLVKDYFPEPVTVSWNSGALTSGVHTFPAVLQSSGLYSLSSVVTVPSSSLGTKTYTCNVDHKPSNTKVDKRV[skipping human IgG4 Fc with S228P F234A L235A (EU numbers)]GGGGSGGGGSGGGGSGGGGSEVQLVESGGGLVQPGGSLRLSCAASGFAFSSYDMSWVRQAPGKGLDWVATISGGGRYTYYPDSVKGRFTISRDNSKNNLYLQMNSLRAEDTALYYCANRYGEAWFAYWGQGTLVTVSSGGGGSGGGGSGGGGSGGGGSDIQMTQSPSSMSASVGDRVTFTCRASQDINTYLSWFQQKPGKSPKTLIYRANRLVSGVPSRFSGSGSGQDYTLTISSLQPEDMATYYCLQYDEFPLTFGAGTKLELK light: EIVLTQSPATLSLSPGERATLSCRASQTISSYLAWYQQKPGQAPRLLIYDASNRATGIPARFSGSGSGTDFTLTISSLEPEDFAVYYCQQRSNWPITFGQGTNLEIKRTVAAPSVFIFPPSDEQLKSGTASVVCLLNNFYPREAKVQWKVDNALQSGNSQESVTEQDSKDSTYSLSSTLTLSKADYEKHKVYACEVTHQGLSSPVTKSFNRGEC
6.85 nM |  | 0.066 nM | 3.03 nM | 0.073 nM | BS-PL021A (bispecific antibody, human IgG1, kappa, Morrison form (IgG-scFv): an scFv at the C-terminus of each of the two heavy chains) heavy: QVQLQQWGAGLLKPSETLSLTCAVYGGSISDYYWNWIRQPPGKGLEWIGEINHRGTTNSNPSLKSRVTLSLDTSKNQFSLKLRSVTAADTAVYYCAFGYSDYEYDWFDPWGQGTLVTVSSASTKGPSVFPLAPSSKSTSGGTAALGCLVKDYFPEPVTVSWNSGALTSGVHTFPAVLQSSGLYSLSSVVTVPSSSLGTQTYICNVNHKPSNTKVDKKV[skipping human IgG1 Fc with L234A L235A G237A (EU numbers)]GGGGSGGGGSGGGGSEVQLVESGGGLVQPGGSLRLSCAASGFAFSSYDMSWVRQAPGKGLDWVATISGGGRYTYYPDSVKGRFTISRDNSKNNLYLQMNSLRAEDTALYYCANRYGEAWFAYWGQGTLVTVSSGGGGSGGGGSGGGGSGGGGSDIQMTQSPSSMSASVGDRVTFTCRASQDINTYLSWFQQKPGKSPKTLIYRANRLVSGVPSRFSGSGSGQDYTLTISSLQPEDMATYYCLQYDEFPLTFGAGTKLELKR light: EIVLTQSPATLSLSPGERATLSCRASQTISSYLAWYQQKPGQAPRLLIYDASNRATGIPARFSGSGSGTDFTLTISSLEPEDFAVYYCQQRSNWPITFGQGTNLEIKRTVAAPSVFIFPPSDEQLKSGTASVVCLLNNFYPREAKVQWKVDNALQSGNSQESVTEQDSKDSTYSLSSTLTLSKADYEKHKVYACEVTHQGLSSPVTKSFNRGEC
 |  |  |  | 0.045 nM | H7L8(hG1WT) (antibody, human IgG1, kappa, Humanized anti-LAG3 antibody, wild-type human IgG1 constant region) heavy: QVQLQQWGAGLLKPSETLSLTCAVYGGSISDYYWNWIRQPPGKGLEWIGEINHRGTTNSNPSLKSRVTLSLDTSKNQFSLKLRSVTAADTAVYYCAFGYSDYEYDWFDPWGQGTLVTVSS[skipping human IgG1 constant region] light: EIVLTQSPATLSLSPGERATLSCRASQTISSYLAWYQQKPGQAPRLLIYDASNRATGIPARFSGSGSGTDFTLTISSLEPEDFAVYYCQQRSNWPITFGQGTNLEIKRTVAAPSVFIFPPSDEQLKSGTASVVCLLNNFYPREAKVQWKVDNALQSGNSQESVTEQDSKDSTYSLSSTLTLSKADYEKHKVYACEVTHQGLSSPVTKSFNRGEC
